Measurements published in paper PMC3500392 (ACS chemical biology, 2012).
Counter-ions that a name gives are not always drawn.

Key:
[1] = biological target: T1, GRK2 (Homo sapiens, UniProt P25098, S670A); test: GRK2 mediated phosphorylation of light-activated bovine rod outer segments; format: biochemical
T1 sequence (P25098 1-689 S670A): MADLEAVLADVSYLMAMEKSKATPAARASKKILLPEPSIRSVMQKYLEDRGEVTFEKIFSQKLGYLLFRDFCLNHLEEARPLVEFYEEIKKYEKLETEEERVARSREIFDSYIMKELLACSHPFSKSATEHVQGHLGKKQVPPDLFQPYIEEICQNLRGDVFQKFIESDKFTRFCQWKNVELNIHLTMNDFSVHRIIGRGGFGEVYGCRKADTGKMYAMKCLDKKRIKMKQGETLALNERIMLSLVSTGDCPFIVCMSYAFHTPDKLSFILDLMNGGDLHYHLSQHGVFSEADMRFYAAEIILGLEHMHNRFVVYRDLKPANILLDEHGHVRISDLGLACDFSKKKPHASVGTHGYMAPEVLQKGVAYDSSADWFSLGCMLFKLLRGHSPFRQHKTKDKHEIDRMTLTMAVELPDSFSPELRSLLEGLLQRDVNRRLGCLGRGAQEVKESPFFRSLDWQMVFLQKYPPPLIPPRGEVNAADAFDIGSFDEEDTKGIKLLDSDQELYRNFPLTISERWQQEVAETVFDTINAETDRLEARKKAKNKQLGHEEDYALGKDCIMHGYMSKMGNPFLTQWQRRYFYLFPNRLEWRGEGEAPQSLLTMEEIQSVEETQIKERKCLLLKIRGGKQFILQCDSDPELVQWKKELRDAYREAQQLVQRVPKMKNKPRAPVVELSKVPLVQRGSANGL

[2] = biological target: T1, GRK2; format: binding; conditions: 2 nM C13.28-FAM
[3] = system: GRK2; conditions: cited from earlier work
[4] = biological target: T1, GRK2; conditions: Thermofluor, 10 μM, previously determined; cited from earlier work
[5] = system: adult mouse ventricular myocyte contractility; test: Myocyte shortening measurements; conditions: for effect on isoproterenol-induced cardiomyocyte contractility: compared to isoproterenol alone
[6] = system: cardiac contractility in C57/B6 mice; test: In vivo hemodynamic measurements; set-up: species or system mouse; conditions: for βAR-mediated (isoproterenol) in vivo cardiac contractility response: 10 mg kg^−1, 1 h before catheterization
[7] = cited from earlier work

With 4-hydroxy-quinone monohydrate [P-835] the “inhibition of GRK2 mediated phosphorylation of ROS” value [1] was “no effect on inhibiting GRK2 kinase activity”.
In the case of `Nc1ncnc2c1ncn2[C@@H]1O[C@H](COP(=O)(O)OP(=O)(O)OP(=O)(O)O)[C@@H](O)[C@H]1O` [ATP], the “fraction of aptamer competed off (maximal inhibition of aptamer binding)” value [2] is given as 40–70% and the Km [3] is given as 28 µM.
For `O=C(N[C@@H]1CNCCC[C@H]1OC(=O)c1cc(O)c(C(=O)c2c(O)cccc2C(=O)O)c(O)c1)c1ccc(O)cc1` [balanol], the “ΔTm GRK2” value [4] is listed as 12–19 °C.
In the case of `CNCCC(Oc1ccc(C(F)(F)F)cc1)c1ccccc1` (centres unmarked) [fluoxetine], the “effect on isoproterenol-induced cardiomyocyte contractility” value [5] is reported as “negligible effects”, the “βAR-mediated (isoproterenol) in vivo cardiac contractility response” value [6] is reported as “no effect on in vivo βAR-mediated cardiac contractility” and the “inhibition of GRK2 mediated phosphorylation of ROS” value [1] is reported as “did not inhibit ROS phosphorylation by GRK2”.
In the case of `Fc1ccc([C@@H]2CCNC[C@H]2COc2ccc3c(c2)OCO3)cc1` [paroxetine, paroxetine hydrochloride], the “Steady state blood plasma level” value ([7]; healthy male adults) is given as 125 nM, the “fraction of drug remaining in the plasma” value ([7]; human, in vivo) is given as 1% and the “effect on baseline myocyte functional parameters or shape” value ([5]; 10 μM, 10 min) is given as “did not alter baseline myocyte functional parameters or shape”. For the same compound, the “effect on isoproterenol-induced cardiomyocyte contractility” value [5] was “significantly potentiated the isoproterenol effects on contractility”, the heart rate ([6]; 10 mg kg^−1) was “no significant change in heart rate” and the “left ventricular (LV) dP/dt at baseline” value ([6]; 10 mg kg^−1) was “small immediate increase”. For the same compound, the “βAR-mediated (isoproterenol) in vivo cardiac contractility response” value [6] was “significant increased response to isoproterenol”.
